A short description of this test: Cell-based coincidence reporter assay to measure PMP22 gene transcription in S16 Pmp22-F2sN cells - Confirmatory screen (AID 1508646). The note with it: S16 Schwann cells Pmp22-F2sN, dual luciferase, 24 h. An outline of the steps:
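S16 Schwann cells carrying a bioluminescent reporter in the Pmp22 3' UTR (Pmp22-F2sN) were treated with compounds for 24 h at 37C, then lysed; FLuc and then NLuc luminescence were read sequentially with a dual-luciferase kit on a CCD imager.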

[1] abbreviates: measured here: FLuc reporter channel.
[2] abbreviates: measured here: NLuc reporter channel.

This passage reports AC50 results from PubChem BioAssay (NCATS).

Each structure is given as a SMILES string. The list shows a part of the results. These are further read-outs of the screen, such as a control signal, another cell line or another target. No call is given for them. Most of these compounds were active or inconclusive in the main read-out, so they are no random draw. Potencies come from curve fits of mixed quality, noted in brackets.

The AC50 is the concentration at which the activity in the assay is half-maximal.
Tags give direction and shape of the fitted curve.

For `COc1ccccc1Nc1ncnc2scc(-c3ccc(F)cc3)c12`, the AC50 under setting [1] was 24.3 µM [falling, partial curve].

Take `Cc1ccccc1OCC(=O)Nc1ccccc1C(=O)OCc1cc(=O)n2nc(C3CC3)sc2n1`: the AC50 under setting [2] is 24.3 µM [falling, partial curve, poor fit].

For `COc1ccc(NC(=O)c2ccc3c(c2)c(C)c(C)n3Cc2ccc(F)cc2)cc1`, the AC50 under setting [2] is 13.7 µM [falling, partial curve, poor fit].

Take `O=C(NCCSc1c(-c2ccccc2)[nH]c2ccccc12)c1ccc(S(=O)(=O)N2CCOCC2)cc1`: the AC50 under setting [1] was 15.3 µM [falling, single point].

In the case of `O=C(NCCc1ccccc1Cl)C1CCN(c2nc3ccccc3nc2C(F)(F)F)CC1`, the AC50 under setting [2] is 43.2 µM [falling, single point].

Turning to `CCOc1cc(CNc2ccc(O)cc2)ccc1OCc1ccc(Cl)cc1`, the AC50 under setting [2] was 6.11 µM [falling, partial curve].

Take `Cc1noc(/C=C/c2ccco2)c1S(=O)(=O)N1CCC(C(=O)Nc2ccc(F)c(Cl)c2)CC1`: the AC50 under setting [1] was 6.11 µM [falling, full curve, poor fit].

As for `CCOc1ccc(CCNc2ncnc3onc(C)c23)cc1OCC`, under setting [2], the AC50 is 1.93 µM [falling, partial curve, poor fit].

For `CCN1CCN(c2nc3c(S(=O)(=O)c4ccc(C)cc4)nnn3c3ccsc23)CC1`, under setting [1], the AC50 was 43.2 µM [falling, single point].

Regarding `Cc1cccc(-c2c3c(=O)n(C)c(=O)n(C)c3c3c(C)nc4ccccc4n23)c1`, under setting [1], the AC50 is 17.2 µM [falling, partial curve].

Turning to `Oc1ccc(NCc2ccccc2OCc2ccccc2F)cc1`, the AC50 under setting [2] was 24.3 µM [falling, partial curve].

Take `CC(C)OCCCNc1ncnc2sc3c(c12)CCCC3`: the AC50 under setting [2] is 9.68 µM [falling, full curve, poor fit].

Consider `Cn1c(=O)c2c(-c3ccccc3Br)n(C(C)(C)C)cc2n(C)c1=O`, for which, under setting [2], the AC50 is 8.62 µM [falling, partial curve, poor fit].

Take `CCOC(=O)C1CCN(C(=O)c2ccc3c(=O)n4nc(Nc5ccccc5)sc4nc3c2)CC1`: the half-maximal activity concentration (AC50) under setting [2] is 3.06 µM [rising, partial curve, poor fit].

For `COc1ccc(NC(=O)CCNS(=O)(=O)c2ccc3c(c2)CCN3C(=O)C2CC2)cc1Cl`, the AC50 under setting [2] was 21.7 µM [falling, partial curve, poor fit].

As for `CN(C1CCCCC1)S(=O)(=O)c1ccc2c(c1)c(=O)c(C(=O)NCc1ccc(Cl)cc1)cn2C`, under setting [1], the AC50 was 17.2 µM [falling, partial curve, poor fit].

In the case of `COc1ccc(NC(=O)CCCn2c(=O)c3cccn3c3cccnc32)cc1Cl`, the AC50 under setting [1] is 9.68 µM [falling, partial curve, poor fit].

For `CC(=O)N1c2c(cc(Br)cc2S(=O)(=O)Nc2ccc(OC(F)(F)F)cc2)CC1C` (centres undefined), the AC50 under setting [2] is 27.3 µM [falling, partial curve, poor fit].

As for `CCN(c1ccccc1)S(=O)(=O)c1ccc2[nH]cc(C(=O)NCc3ccc(C)cc3)c(=O)c2c1`, the AC50 under setting [2] is 43.2 µM [falling, single point].

With `Cc1ccccc1Cn1c(=O)n(CC2CCC(C(=O)N3CCOCC3)CC2)c(=O)c2sccc21` (centres undefined), the AC50 under setting [2] is 17.2 µM [falling, partial curve, poor fit].

With `COc1ccc(-c2noc(CSc3nnc(-c4ccncc4)n3-c3cccc(C)c3)n2)cc1OC`, the AC50 under setting [1] is 4.32 µM [falling, full curve, poor fit].

Consider `O=C(CCOc1ccccc1)N(Cc1cccnc1)c1nc2ccc(F)cc2s1`, for which the AC50 under setting [2] is 12.2 µM [falling, full curve, poor fit].

For the molecule `COc1ccc(Nc2cc(C)nc3c(C)c(C)ccc23)cc1`, the AC50 under setting [2] is 30.6 µM [falling, single point].

In the case of `Cc1c(C(=O)Nc2ccc(F)cc2)oc2ccc(S(=O)(=O)N3CCCCCC3)cc12`, the AC50 under setting [1] is 10.9 µM [falling, full curve, poor fit].

With `O=C(CCS(=O)(=O)c1cc(Br)cc2c1N(C(=O)C1CC1)CC2)N1CCN(c2cccc(C(F)(F)F)c2)CC1`, the AC50 under setting [1] is 30.6 µM [falling, single point].

Regarding `Cc1oc(-c2ccc(Cl)cc2)nc1CN1CCCC(C(=O)NCCc2ccccc2)C1` (centres undefined), under setting [2], the AC50 was 43.2 µM [falling, single point].

As for `CCc1ccc(S(=O)(=O)c2cn(Cc3ccccc3F)c3cc(OC)c(OC)cc3c2=O)cc1`, the AC50 under setting [1] was 3.06 µM [falling, partial curve, poor fit].

For the molecule `COc1cc(OC)c(OC)cc1/C=C/c1nc2cc3ccccc3cc2c(=O)n1-c1ccc(F)cc1F`, under setting [2], the AC50 was 21.7 µM [falling, partial curve].

Consider `COc1ccc(NCc2cc3cc4c(cc3n(CC(=O)Nc3ccc(F)cc3F)c2=O)OCO4)cc1`, for which the AC50 under setting [2] was 43.2 µM [falling, single point].

As to `CCc1ccccc1NC(=O)c1ccc2nc(C(C)C)oc2c1`, the AC50 under setting [2] was 7.69 µM [falling, partial curve, poor fit].

Regarding `N#Cc1c(C(F)(F)F)cc(-c2cccs2)nc1SCC(=O)Nc1ccc(Cl)cc1`, the AC50 was 19.3 µM [falling, partial curve, poor fit] under setting [1] and 24.3 µM [falling, partial curve] under setting [2].

For the molecule `CCCSc1ncc(Cl)c(C(=O)Nc2sc3c(c2C(=O)NCC)CCCC3)n1`, the concentration at half-maximal activity (AC50) by setting is: under setting [1], 21.7 µM [falling, partial curve]; under setting [2], 27.3 µM [falling, partial curve].
